# Results reported in the supplement of paper PMC4466236.
# Whole data set: some 33,000 sequences, median “E-score (dimensionless, -0.5 to 0.5)” near -0.058, cut for the highest 2% near 0.35. This is one part of the list.
# Test system: MvaT
# Assay: PBM 8-mer E-score (mean of HK and ME arrays) (E-score (dimensionless, -0.5 to 0.5)); higher = stronger relative binding preference; most listed sequences are background and not binding sites
# Method in brief: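 Reported values are rank-based E-scores, taken as the mean of two universal arrays and parsed with a custom script. Each 8-mer score falls between -0.5 and 0.5. The arrays, ME and HK, were double-stranded 60-mers with a constant 25-mer primer region and a variable 35-mer region covering all 8-mers. They were probed, by an earlier protocol, with full-length P. aeruginosa MvaT carrying an N-terminal glutathione S-transferase fusion.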
row,Sequence,PBM 8-mer E-score
1,ACGTTTAC,0.0903
2,CGAATGGA,-0.122
3,TGTTTTAA,0.302
4,AGACTCAA,-0.0469
5,CTAAAACA,0.2
6,CCTCGGTC,-0.303
7,CATTAGAG,0.036
8,CTTAGAAC,0.124
9,AATGAATG,0.00614
10,GGGGCGGA,-0.221
11,TACACTCA,0.121
12,CATCCGGA,-0.0793
13,ACCCACCA,-0.0403
14,ATGTCGAA,0.0966
15,AGCTATCC,-0.166
16,TAGTGTGA,0.145
17,AGTCGCGA,-0.0684
18,AAGTTACA,0.264
19,ACAAATGG,0.0586
20,CTGTACTA,0.118
21,CTACACGC,-0.107
22,AGAAGACC,-0.178
23,GATTAAAA,0.217
24,CACATGGC,-0.224
25,CATACCAC,0.0509

row,Sequence,PBM 8-mer E-score
1,CCGCGTGC,-0.212
2,AGGTTCAT,-0.155
3,CGTAACTC,0.0244
4,ACACACCC,-0.0306
5,TGGATAAA,0.296
6,ACGTATCC,-0.0828
7,CGTTGTCC,-0.188
8,CCCTGGAA,-0.276
9,AGCACGGA,-0.111
10,TCACAAAA,0.0702
11,CTTGTGTC,-0.17
12,CCCGGGAC,-0.246
13,CTATGGCC,-0.0652
14,CCTGCCGA,-0.182
15,TCCATAGA,-0.0508
16,GTACACTA,0.261
17,ATGCCAAG,-0.144
18,CCAACTCG,-0.00523
19,ACGGGTTA,0.0693
20,CCCGAGGC,-0.179
21,CAGCCCCA,-0.211
22,CCTATGAA,-0.166
23,GGATACAA,0.0627
24,GCAAGGTA,-0.00235
25,CAAAGGCG,-0.176

row,Sequence,PBM 8-mer E-score
1,ATTGTGAA,0.2
2,TGGGGACA,-0.2
3,GAGTCTCA,-0.0066
4,AGACATTA,0.196
5,CCTTAAAC,0.0162
6,CGGACCGA,-0.16
7,CATTATTA,0.432
8,CACCGCGG,-0.201
9,ACCTCACA,-0.058
10,ACCTCGAG,-0.205
11,AATACGAC,0.0718
12,CGAGAGAG,-0.162
13,GGCGGCCC,-0.363
14,AACATTCA,0.152
15,GTCGTTGA,-0.0908
16,CCATTAGG,-0.237
17,CGAACGAG,-0.0661
18,GGCCATAA,0.00337
19,CCGGATAC,-0.146
20,AATACATC,0.173
21,AGCGGCTC,-0.201
22,AATCTGGA,0.0976
23,CTTTCTAA,0.221
24,ATACCCCA,-0.0573
25,ACTTACTA,0.295

row,Sequence,PBM 8-mer E-score
1,CGACTCAG,-0.144
2,AGGATCAA,-0.174
3,ATAATCTG,0.196
4,AAATCCCT,-0.0564
5,ACCCCACC,-0.268
6,CAAGATCA,0.122
7,GTGTCTAA,0.0832
8,ACGACTTG,-0.0579
9,ACGCAAAG,-0.0201
10,AAAGTCCT,-0.0507
11,AGACGAAG,-0.131
12,AAATGCAA,0.218
13,CGACGATA,-0.015
14,AACGTGGA,-0.028
15,CATGAAGA,0.125
16,AAGGGAGT,-0.0241
17,GTCCTATA,0.0773
18,AAAGGGCA,0.0253
19,ATAAGACA,0.249
20,CAACTTCA,0.217
21,TGGGAACA,-0.0177
22,AGTTCTGA,0.144
23,CGCGTATC,-0.027
24,AGGTAATC,-0.121
25,ATTCCGGG,0.061

row,Sequence,PBM 8-mer E-score
1,AGCCCACG,-0.235
2,ACAACAGC,-0.0433
3,CTGCTTAC,0.0204
4,CAGAACGC,-0.223
5,GAACCCGA,-0.178
6,GAATGAAC,0.0232
7,AGGTAACA,-0.115
8,GCAATCCC,0.0218
9,AAGCAGCG,-0.00654
10,ACAGTCGA,-0.137
11,AAAAGAAA,0.25
12,GCACTACC,-0.0956
13,CTGTTCTC,0.0149
14,CGCGAACC,-0.259
15,CGACAAAG,-0.127
16,AAGTTTTC,0.267
17,ATTCCTGC,-0.00788
18,GCAAACAC,0.0355
19,CCCTCGGC,-0.245
20,GAGTCTCC,-0.14
21,CAAATCTA,0.015
22,CCGCAAAC,-0.105
23,TACCCAAA,0.104
24,GGGGTGAC,-0.223
25,CTGAGTTC,-0.0713

row,Sequence,PBM 8-mer E-score
1,CTCACTCC,-0.153
2,CTAAGTCC,0.0862
3,GCACGCGA,-0.205
4,CCGTCGAA,-0.0658
5,ACGAGGTA,-0.17
6,AAATATTA,0.438
7,ATCAATCC,-0.138
8,AGCATCAG,-0.14
9,ATAGTCCA,0.134
10,CATATTTC,0.26
11,CCGATTGC,-0.162
12,CGTTCCCA,-0.168
13,CAACAATG,0.232
14,CCCCATAG,-0.0375
15,GTGGACAC,-0.125
16,CCACCGAG,-0.278
17,GCGCGAGC,-0.24
18,CTATAGGC,-0.1
19,CTTGAAAG,0.0824
20,AGCTCAAG,-0.133
21,ACACTATG,0.17
22,ACTTGTAT,0.249
23,GGGCAACC,-0.289
24,ATCACCCG,-0.161
25,CGATTGGC,-0.137

row,Sequence,PBM 8-mer E-score
1,CTTCCCAA,-0.169
2,GATATAAC,0.372
3,GTGGGGGA,-0.164
4,ATTATTTG,0.351
5,ACCTTTCG,-0.14
6,CTCGTCCC,-0.183
7,CTCCAGCC,-0.328
8,TACGAGTA,0.121
9,GCCTAAGA,-0.18
10,GAGTCCGA,-0.209
11,GTGACTAA,0.117
12,ACCCACGA,-0.126
13,GAGGCTGA,-0.223
14,ATATCTCA,0.24
15,GGCGAGTA,-0.0712
16,GGAGTCTA,-0.17
17,ATCCTTAA,0.0951
18,AAGTAAGC,0.229
19,CCGAGGTC,-0.133
20,TCTCCTCA,-0.177
21,AATTTGGT,0.209
22,ATGCTCCG,-0.0938
